Measurements taken from the supplement of paper PMC11741623.
The list shows a part of the results. Interaction screen of human proteins with wild-type SARS-CoV-2 proteins by split-DHFR complementation in yeast, 1 µg/mL methotrexate. Value = fitness of the pair (three or more lineages) minus that of the viral protein without a human partner, on a scale set by negative (0) and fused positive (1) controls, mean of up to three cultures; higher = more likely to interact. Active = false discovery rate below 0.05 (one-sided t-test) in at least one culture. Nearly all pairs are not hits, and differences among them are mostly noise (correlation between cultures about 0.3); most hits were seen in one culture only. Human sequences are the Swiss-Prot entries looked up by gene name; the clone may be another isoform. NSP2 values were corrected by the authors for a growth advantage. Listed are human proteins with a hit and a random twelfth of the others.

Legend:
Assay in all cases: yeast fitness gain over the viral ORF with no human partner (scaled fitness); higher = more likely to interact
SARS-CoV-2 E = target: SARS-CoV-2 E
Description: (§1)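 Split mouse DHFR complementation in pooled diploid yeast: human ORFeome clones carry one fragment and viral ORFs the other; barcoded lineages compete in 1 µg/mL methotrexate and fitness is read by barcode sequencing in up to three cultures.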

SARS-CoV-2 M = target: SARS-CoV-2 M
Description: as §1

SARS-CoV-2 NSP1 = target: SARS-CoV-2 NSP1
Description: as §1

SARS-CoV-2 NSP10 = target: SARS-CoV-2 NSP10
Description: as §1

SARS-CoV-2 NSP12 = target: SARS-CoV-2 NSP12
Description: as §1

SARS-CoV-2 NSP13 = target: SARS-CoV-2 NSP13
Description: as §1

SARS-CoV-2 NSP14 = target: SARS-CoV-2 NSP14
Description: as §1

SARS-CoV-2 NSP2 = target: SARS-CoV-2 NSP2
Description: as §1

SARS-CoV-2 NSP4 = target: SARS-CoV-2 NSP4
Description: as §1

SARS-CoV-2 NSP5 = target: SARS-CoV-2 NSP5
Description: as §1

SARS-CoV-2 NSP6 = target: SARS-CoV-2 NSP6
Description: as §1

SARS-CoV-2 NSP7 = target: SARS-CoV-2 NSP7
Description: as §1

SARS-CoV-2 NSP8 = target: SARS-CoV-2 NSP8
Description: as §1

SARS-CoV-2 NSP9 = target: SARS-CoV-2 NSP9
Description: as §1

SARS-CoV-2 ORF10 = target: SARS-CoV-2 ORF10
Description: as §1

SARS-CoV-2 ORF3B = target: SARS-CoV-2 ORF3B
Description: as §1

SARS-CoV-2 ORF6 = target: SARS-CoV-2 ORF6
Description: as §1

SARS-CoV-2 ORF7A = target: SARS-CoV-2 ORF7A
Description: as §1

SARS-CoV-2 ORF7B = target: SARS-CoV-2 ORF7B
Description: as §1

SARS-CoV-2 ORF8 = target: SARS-CoV-2 ORF8
Description: as §1

SARS-CoV-2 ORF9B = target: SARS-CoV-2 ORF9B
Description: as §1

[1] = target: SARS-CoV-2 ORF9Bwu (the 73-codon ORF)
Description: as §1

SARS-CoV-2 S = target: SARS-CoV-2 S
Description: as §1

SARS-CoV-2 N = target: SARS-CoV-2 N
Description: as §1

SARS-CoV-2 ORF3A = target: SARS-CoV-2 ORF3A
Description: as §1

SARS-CoV-2 NSP15 = target: SARS-CoV-2 NSP15
Description: as §1

SARS-CoV-2 NSP16 = target: SARS-CoV-2 NSP16
Description: as §1

Measured: yeast fitness gain

B1: DEF8, Q6ZN54 (protein)
chain: MAILSLRAPGPWQAMQVWADRTLLTPHTGVTSQVLGVAAAVMTPLPGGHAAGRTREARWDAMEYDEKLARFRQAHLNPFNKQSGPRQHEQGPGEEVPDVTPEEALPELPPGEPEFRCPERVMDLGLSEDHFSRPVGLFLASDVQQLRQAIEECKQVILELPEQSEKQKDAVVRLIHLRLKLQELKDPNEDEPNIRVLLEHRFYKEKSKSVKQTCDKCNTIIWGLIQTWYTCTGCYYRCHSKCLNLISKPCVSSKVSHQAEYELNICPETGLDSQDYRCAECRAPISLRGVPSEARQCDYTGQYYCSHCHWNDLAVIPARVVHNWDFEPRKVSRCSMRYLALMVSRPVLRLREINPLLFSYVEELVEIRKLRQDILLMKPYFITCREAMEARLLLQLQDRQHFVENDEMYSVQDLLDVHAGRLGCSLTEIHTLFAKHIKLDCERCQAKGFVCELCREGDVLFPFDSHTSVCADCSAVFHRDCYYDNSTTCPKCARLSLRKQSLFQEPGPDVEA
inactive: SARS-CoV-2 E -0.04 | SARS-CoV-2 M 0.0665 | SARS-CoV-2 NSP1 = 0.0737 | SARS-CoV-2 NSP10 = 0.0586 | SARS-CoV-2 NSP12 = 0.103 | SARS-CoV-2 NSP13 = 0.0537 | SARS-CoV-2 NSP14 = 0.19 | SARS-CoV-2 NSP2 = -0.149 | SARS-CoV-2 NSP4 = 0.0864 | SARS-CoV-2 NSP5 = 0.0692 | SARS-CoV-2 NSP6 = 0.0742 | SARS-CoV-2 NSP7 = -0.0692 | SARS-CoV-2 NSP8 = 0.0944 | SARS-CoV-2 NSP9 = 0.144 | SARS-CoV-2 ORF10 = 0.0421 | SARS-CoV-2 ORF3B -0.000483 | SARS-CoV-2 ORF6 = 0.0822 | SARS-CoV-2 ORF7A -0.0973 | SARS-CoV-2 ORF7B -0.0518 | SARS-CoV-2 ORF8 = 0.0113 | SARS-CoV-2 ORF9B 0.0186 | [1] 0.0807 | SARS-CoV-2 S 0.213

B2: LSMD1, Q9BRA0 (protein)
chain: MAGAGPTMLLREENGCCSRRQSSSSAGDSDGEREDSAAERARQQLEALLNKTMRIRMTDGRTLVGCFLCTDRDCNVILGSAQEFLKPSDSFSAGEPRVLGLAMVPGHHIVSIEVQRESLTGPPYL
inactive: SARS-CoV-2 E -0.25 | SARS-CoV-2 N 0.0643 | SARS-CoV-2 NSP14 = 0.157 | SARS-CoV-2 NSP4 = 0.0386 | SARS-CoV-2 NSP8 = -0.0285 | SARS-CoV-2 ORF3A -0.0667

B3: HHIPL2, Q6UWX4 (protein)
chain: MLRTSTPNLCGGLHCRAPWLSSGILCLCLIFLLGQVGLLQGHPQCLDYGPPFQPPLHLEFCSDYESFGCCDQHKDRRIAARYWDIMEYFDLKRHELCGDYIKDILCQECSPYAAHLYDAENTQTPLRNLPGLCSDYCSAFHSNCHSAISLLTNDRGLQESHGRDGTRFCHLLDLPDKDYCFPNVLRNDYLNRHLGMVAQDPQGCLQLCLSEVANGLRNPVSMVHAGDGTHRFFVAEQVGVVWVYLPDGSRLEQPFLDLKNIVLTTPWIGDERGFLGLAFHPKFRHNRKFYIYYSCLDKKKVEKIRISEMKVSRADPNKADLKSERVILEIEEPASNHNGGQLLFGLDGYMYIFTGDGGQAGDPFGLFGNAQNKSSLLGKVLRIDVNRAGSHGKRYRVPSDNPFVSEPGAHPAIYAYGIRNMWRCAVDRGDPITRQGRGRIFCGDVGQNRFEEVDLILKGGNYGWRAKEGFACYDKKLCHNASLDDVLPIYAYGHAVGKSVTGGYVYRGCESPNLNGLYIFGDFMSGRLMALQEDRKNKKWKKQDLCLGSTTSCAFPGLISTHSKFIISFAEDEAGELYFLATSYPSAYAPRGSIYKFVDPSRRAPPGKCKYKPVPVRTKSKRIPFRPLAKTVLDLLKEQSEKAARKSSSATLASGPAQGLSEKGSSKKLASPTSSKNTLRGPGTKKKARVGPHVRQGKRRKSLKSHSGRMRPSAEQKRAGRSLP
inactive: SARS-CoV-2 E -0.0991 | SARS-CoV-2 M -0.00596 | SARS-CoV-2 N -0.078 | SARS-CoV-2 NSP1 = -0.0273 | SARS-CoV-2 NSP10 = -0.0329 | SARS-CoV-2 NSP12 = -0.0347 | SARS-CoV-2 NSP13 = -0.0666 | SARS-CoV-2 NSP15 = -0.0231 | SARS-CoV-2 NSP16 = 0.0312 | SARS-CoV-2 NSP2 = -0.286 | SARS-CoV-2 NSP5 = -0.017 | SARS-CoV-2 NSP6 = 0.0483 | SARS-CoV-2 NSP8 = -0.0382 | SARS-CoV-2 NSP9 = -0.0827 | SARS-CoV-2 ORF10 = -0.104 | SARS-CoV-2 ORF3A 0.12 | SARS-CoV-2 ORF3B -0.033 | SARS-CoV-2 ORF6 = -0.016 | SARS-CoV-2 ORF7A -0.0817 | SARS-CoV-2 ORF7B -0.153 | SARS-CoV-2 ORF8 = -0.0404 | SARS-CoV-2 ORF9B -0.102 | [1] -0.0331 | SARS-CoV-2 S 0.0609

B4: MPP2, Q14168 (protein)
chain: MPVAATNSETAMQQVLDNLGSLPSATGAAELDLIFLRGIMESPIVRSLAKVIMVLWFMQQNVFVPMKYMLKYFGAHERLEETKLEAVRDNNLELVQEILRDLAHVAEQSSTAAELAHILQEPHFQSLLETHDSVASKTYETPPPSPGLDPTFSNQPVPPDAVRMVGIRKTAGEHLGVTFRVEGGELVIARILHGGMVAQQGLLHVGDIIKEVNGQPVGSDPRALQELLRNASGSVILKILPSYQEPHLPRQVFVKCHFDYDPARDSLIPCKEAGLRFNAGDLLQIVNQDDANWWQACHVEGGSAGLIPSQLLEEKRKAFVKRDLELTPNSGTLCGSLSGKKKKRMMYLTTKNAEFDRHELLIYEEVARMPPFRRKTLVLIGAQGVGRRSLKNKLIMWDPDRYGTTVPYTSRRPKDSEREGQGYSFVSRGEMEADVRAGRYLEHGEYEGNLYGTRIDSIRGVVAAGKVCVLDVNPQAVKVLRTAEFVPYVVFIEAPDFETLRAMNRAALESGISTKQLTEADLRRTVEESSRIQRGYGHYFDLCLVNSNLERTFRELQTAMEKLRTEPQWVPVSWVY
inactive: SARS-CoV-2 E -0.0885 | SARS-CoV-2 M -0.0145 | SARS-CoV-2 N 0.0498 | SARS-CoV-2 NSP1 = 0.0288 | SARS-CoV-2 NSP10 = 0.0222 | SARS-CoV-2 NSP12 = 0.0904 | SARS-CoV-2 NSP13 = 0.0586 | SARS-CoV-2 NSP16 = 0.0188 | SARS-CoV-2 NSP2 = -0.297 | SARS-CoV-2 NSP5 = -0.0281 | SARS-CoV-2 NSP6 = 0.00742 | SARS-CoV-2 NSP7 = -0.00528 | SARS-CoV-2 NSP8 = 0.0474 | SARS-CoV-2 NSP9 = -0.0995 | SARS-CoV-2 ORF10 = 0.0115 | SARS-CoV-2 ORF3A -0.227 | SARS-CoV-2 ORF3B -0.00924 | SARS-CoV-2 ORF6 = 0.023 | SARS-CoV-2 ORF7A 0.035 | SARS-CoV-2 ORF7B -0.0779 | SARS-CoV-2 ORF8 = 0.0581 | SARS-CoV-2 ORF9B -0.0226 | [1] 0.065 | SARS-CoV-2 S -0.0854
